Results from patent US20230213525A1, “DETECTING MICROBIAL INFECTION IN WOUNDS” (QUALIZYME DIAGNOSTICS GMBH & CO KG, priority 2016, published 2023).
Like-named read-outs stand apart in the source and are kept apart here.

Test system: Cathepsin
Conditions: Whatman filter paper, 210 minutes
Procedure: The final concentration of N-methoxysuccinyl-ala-ala-pro-phe-p- nitroanilide can be between 0.5 to 10 mM, and is preferentially 5.00 mM. 10 µL of this solution were pipetted onto Whatman filter paper.

For “N-methoxysuccinyl-ala-ala-pro-phe-p-nitroanilide”, the Test response (infected sputum samples A, B) was “yellow” and the Test response (non-infected sputum samples C, D) was “No colour change”.
